Assay results: the supplement of paper PMC11417369
The list shows a part of the results.

system: PfSIP2 AP2 domain 1 (GST-tagged); assay: gcPBM binding intensity (ln(normalized median fluorescence intensity)); higher = stronger DNA binding
Method in brief: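 Using an Agilent 4 × 180k array, primer-extended double-stranded 36-bp intergenic genomic probes and negative controls were exposed for 1 h to GST-fused P. falciparum DNA-binding domains expressed in E. coli. Binding was carried out in 1× PBS with 1% milk, 0.2 mg/ml BSA, 0.5% salmon testes DNA and 0.03% Triton X-100, and protein was detected with Alexa488 anti-GST antibody and a 488 nm scan. Binding intensity is the highest Masliner-normalised natural-log median intensity across replicate spots of either probe orientation.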

Row | Sequence | gcPBM binding intensity (ln)
1 | TTTTAAAATTTTTTTTTTTTTTTTTTATGAACAAGT [GTGCAC_negctrl_site124] | 7.09
2 | AATATTTTAAATATTGCATGCAATGAAAAATGTAAA [TGCATGCA_site139] | 7.09
3 | TCTTATTTTTTTATATATACAAAGTTTTATATATAT [GTGCAC_negctrl_site314] | 7.27
4 | GTTCAATCGGGTGTTACTTCAAACAAGGAACAACAA [TGCATGCA_negctrl_site471] | 7.19
5 | ATAGTAAATATAAAAAGTACTGATTCTTAAATTGTT [XGTACX_site5972] | 7.04
6 | TATTTTATTGTTGTTATACACACCATATAAAATATT [CACACA_site1630] | 6.98
7 | ACTTGACACCAACACACACACATATATAAAAAAAAA [CACACA_site756] | 7.92
8 | AACAAAAATGAAAAAACACACATAACATATATAAAT [CACACA_site740] | 6.94
9 | AAAAAAAAAAAAAAAGTGCACTGAAAATATATTGAA [GTGCAC_site9395] | 10.9
10 | TTTTTAATTATTTATATAACGATAATCCTTACATAA [TGCATGCA_negctrl_site180] | 6.96
11 | ATAATATAAATAAAAACACACACAATCGTACATATA [CACACA_site9223] | 7.07
12 | ATATATTGATATATGTGTACATAGCTTATTTCATTT [XGTACX_site1800] | 6.95
13 | ATATAATATATGTAAGTGCGCTTATAAATAAAACGA [GTGCAC_site9841] | 8.11
14 | TATATAGAAAACAAGGCATGCAAATAACAAATTGTG [TGCATGCA_site473] | 6.99
15 | AAAAAAAAAAAAAAGACACACAATGTGAAATAATAA [CACACA_site804] | 7.04
16 | AATATATTTCGAGATACACACATATATAAAAAAAAA [CACACA_site3398] | 7.14
17 | AATAGAACAAATAAAACACACACATATATATATATA [CACACA_site8893] | 9.42
18 | ATATATCACAATAAAATTTATAGAATTTTAAATAAG [TGCATGCA_negctrl_site437] | 6.94
19 | AAAATAAAATAAAATACACACATACATACATACAAA [CACACA_site5366] | 7.1
20 | CAATAAAGAGGGAATTGTACTTTAAATATCCCTCTT [XGTACX_site1991] | 6.86
21 | ATATTATATATATACACACACACATGCATGCACATA [CACACA_site7917] | 8.98
22 | TAAAATTTGCGATGCACACAGAATAGCTAATATGAC [CACACA_site2995] | 7.72

Row | Sequence | gcPBM binding intensity (ln)
23 | TATTTTCTCGTTTGCATGCACCTTATTTTATGTGGT [GTGCAC_site9470] | 10.8
24 | TACTAAAACCCATACACACACATATTTATAGTACCA [CACACA_site7484] | 6.99
25 | AGTTATTTTAAATGTAGTACACAAAAGAAATATTAA [XGTACX_site4092] | 7.12
26 | CATAAATTAAAACACACACACACAAAAAAAAAAAAA [CACACA_site2262] | 7.01
27 | TTTAAAAATATATATTGTACATATATATATCTATGA [XGTACX_site3556] | 7.02
28 | ATAAAAATTAAAAGGAGTACTTAAATATTAAGATGG [XGTACX_site4815] | 6.97
29 | TACTATTTAAAATTTGAACACACATTATTTATTTTA [CACACA_site9020] | 7.02
30 | TTTATTTAAAAAATAAAAAAAAAAAAAAAAAAAAAA [CACACA_negctrl_site1670] | 6.74
31 | TATACAATATATATAACACACATATTTATATAAAAT [CACACA_site5061] | 7.06
32 | CAGTTGGAAGGAAAGTGTACATAAAAAAAAATATAA [XGTACX_site8784] | 7.39
33 | AAAATACCATTTGAAACACACAAAAAAAAAAAAAAT [CACACA_site2981] | 6.81
34 | AACATAAAAATTGAAGCACACACACTAATGAAATAC [CACACA_site8287] | 7.56
35 | ACAAATCTATAAGAGTGTACGAACAGTAAAGGAATT [XGTACX_site2070] | 7.35
36 | ATAAAAATCTTTAGTAGTACATTATAAAAAACTATT [XGTACX_site5531] | 6.99
37 | TTTTTAATATATATCACACATATATATTTTTAATTA [CACACA_site6099] | 6.98
38 | ATGTGAACATTCAATGCACACGATGTAATTATACAT [CACACA_site15] | 6.97
39 | CTAATCGTGCACAACTGTACATTTGTCAAGGGCAAT [XGTACX_site8662] | 10.4
40 | TATATATCTGTGAAAATACTTAAATTGTTATAAAAA [CACACA_negctrl_site1109] | 6.78
41 | CGGCTATTTCTATATACATGCATTTAAAAAAAAAAT [TGCATGCA_site354] | 7.27
42 | AAAAAAAAAATGAGCACACATAAATAAAAACAAACA [CACACA_site1573] | 7.08
43 | ACCTATTTCAAACACACACACACACTAACAAACATA [CACACA_site8233] | 7.7
44 | AACATATATTAGCTTACATGCAAAAAGTAAAAAAAT [TGCATGCA_site10] | 7.07
